# Laboratory results published in the supplement of paper PMC9135407.
# Several values for one entry are separate records, joined by “and”; a condition that tells them apart may be missing. Equal values may be shown once. Where a name gives a salt, the structure may show the parent alone. The campaign covered roughly 5,800 compounds. About 620 (11%) showed activity.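 How the source made its calls: active = score above a cut-off or among the top three wells of a plate; in these data no inactive exceeds 0.85.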 The entries are a selection whose mix differs from that of the whole data set.
# Tested on: primary human hepatic stellate cells (donor 1)
# Experiment: scaled lipid accumulation score (0 = DMSO-like, 1 = nortriptyline-like); higher = stronger HSC inactivation (lipid re-accumulation), active = hit call of the paper
# Conditions: 48 h
# [1] = library stock concentration: 10 mM
# [2] = library stock concentration: 3.33 mM
# [3] = library stock concentration: 1 mM
# [4] = library stock concentration: 80 uM
# [5] = library stock concentration: 400 uM
# [6] = library stock concentration: 2 mM
# [7] = library stock concentration: 6.7 mM
smiles,measurement,setting,value
"Cl.O[Si](CCCN1CCCCC1)(c1ccc(F)cc1)C1CCCCC1 (centres undefined) [Hexahydro-sila-difenidol hydrochloride, p-fluoro analog]",scaled lipid accumulation score,[1],active: 0.956
O=C1c2ccccc2C(=O)C1c1ccc(Cl)cc1,scaled lipid accumulation score,[1],inactive: 0.203
Clc1ccc(C2(c3ccc(-c4cn[nH]c4)cc3)CCNCC2)cc1,scaled lipid accumulation score,[2],active: 1.22
"CC(C)n1cnc2c(NCc3ccccc3O)nc(NCCCO)nc21 [Cdk Inhibitor, p35]",scaled lipid accumulation score,[2],inactive: ≤ 0
CCCCC[C@H](O)/C=C/[C@@H]1[C@@H](C/C=C\CCCC(=O)NCC)[C@@H](O)C[C@H]1O [Prostaglandin F2.alpha. ethyl amide],scaled lipid accumulation score,[3],inactive: ≤ 0
O=C(O)C1CCCN(CCC=C(c2ccccc2)c2ccccc2)C1 (centres undefined),scaled lipid accumulation score,[1],inactive: ≤ 0 and inactive: ≤ -0.006
CC(C)c1cc(-c2n[nH]c(=O)n2-c2ccc3c(ccn3C)c2)c(O)cc1O [Ganetespib],scaled lipid accumulation score,[4],inactive: 0.602
same,scaled lipid accumulation score,[5],inactive: 0.802
CC(C)c1cc(-c2n[nH]c(=O)n2-c2ccc3c(ccn3C)c2)c(O)cc1O [Ganetespib (STA-9090)],scaled lipid accumulation score,[2],inactive: 0.691
same,scaled lipid accumulation score,[1],inactive: 0.649
CC(=O)O[C@]1(C(C)=O)CC[C@H]2[C@@H]3C=C(Cl)C4=CC(=O)[C@@H]5C[C@@H]5[C@]4(C)[C@H]3CC[C@@]21C [Cyproterone acetate],scaled lipid accumulation score,,inactive: ≤ 0
same,scaled lipid accumulation score,library stock concentration: 4.8 mM,inactive: 0.037 and inactive: ≤ -0.001
same,scaled lipid accumulation score,[1],inactive: 0.449 and inactive: ≤ 0
CC(=O)O[C@]1(C(C)=O)CC[C@H]2[C@@H]3C=C(Cl)C4=CC(=O)[C@@H]5C[C@@H]5[C@]4(C)[C@H]3CC[C@@]21C [Cyproterone Acetate],scaled lipid accumulation score,[2],inactive: 0.03
same,scaled lipid accumulation score,[1],inactive: ≤ 0
COc1ccc(-c2ccc3ncc4c(c3c2)n(-c2ccc(N3CCNCC3)c(C(F)(F)F)c2)c(=O)n4C)cn1,scaled lipid accumulation score,[4],inactive: 0.133
same,scaled lipid accumulation score,[6],inactive: 0.546
same,scaled lipid accumulation score,[2],inactive: 0.237
same,scaled lipid accumulation score,[1],inactive: ≤ 0 and inactive: 0.223
Clc1ccc(CO/N=C(\Cn2ccnc2)c2ccc(Cl)cc2Cl)c(Cl)c1,scaled lipid accumulation score,[1],inactive: 0.512
Clc1ccc(CO/N=C(\Cn2ccnc2)c2ccc(Cl)cc2Cl)c(Cl)c1 [Oxiconazole nitrate],scaled lipid accumulation score,library stock concentration: 4.7 mM,inactive: 0.077
same,scaled lipid accumulation score,[1],inactive: 0.068
Cc1nnsc1C(=O)Nc1ccc(-n2nc(C(F)(F)F)cc2C(F)(F)F)cc1,scaled lipid accumulation score,[3],inactive: ≤ 0
CCCSc1nc(N[C@@H]2C[C@H]2c2ccc(F)c(F)c2)c2nnn([C@@H]3C[C@H](OCCO)[C@@H](O)[C@H]3O)c2n1 [Ticagrelor],scaled lipid accumulation score,[2],inactive: ≤ 0
same,scaled lipid accumulation score,[1],inactive: 0.193
CN1CCN(C2=Cc3ccccc3Oc3ccc(Cl)cc32)CC1.O=C(O)/C=C/C(=O)O,scaled lipid accumulation score,[1],active: 1.01
C=CC(=O)Nc1cccc(Nc2nc(Nc3ccc(Oc4ccnc(C(=O)NC)c4)cc3)ncc2F)c1,scaled lipid accumulation score,[2],inactive: ≤ -0.009
same,scaled lipid accumulation score,[1],inactive: 0.491
"CCCCC(C)(C)[C@H](O)/C=C/[C@H]1C=CC(=O)[C@@H]1C/C=C\CCCC(=O)O [16,16-dimethyl Prostaglandin A2]",scaled lipid accumulation score,[3],inactive: ≤ 0
CCCCC(CC)CCC(CC(C)C)OS(=O)(=O)O (centres undefined),scaled lipid accumulation score,[1],inactive: ≤ 0
Cn1cc(-c2cnn3c(N)c(Br)c([C@@H]4CCCNC4)nc23)cn1,scaled lipid accumulation score,[2],inactive: ≤ 0
same,scaled lipid accumulation score,[1],inactive: 0.521
N[C@@H]1CONC1=O [D-cycloserine],scaled lipid accumulation score,,inactive: ≤ 0
N[C@@H]1CONC1=O [Cycloserine],scaled lipid accumulation score,[1],inactive: 0.019
N[C@@H]1CONC1=O,scaled lipid accumulation score,[1],inactive: ≤ 0
N[C@@H]1CONC1=O [D-Cycloserine],scaled lipid accumulation score,[1],inactive: 0.141
CCc1c(C)[nH]c2c1C(=O)C(CN1CCOCC1)CC2 (centres undefined) [Moban],scaled lipid accumulation score,[1],inactive: ≤ 0
CCc1c(C)[nH]c2c1C(=O)C(CN1CCOCC1)CC2 (centres undefined) [Molindone hydrochloride],scaled lipid accumulation score,,inactive: ≤ 0
same,scaled lipid accumulation score,[1],inactive: ≤ -0.01
Cc1ccc(NCCCc2ccccc2)c(N)c1,scaled lipid accumulation score,[2],inactive: ≤ -0.009
same,scaled lipid accumulation score,[1],inactive: ≤ 0
"NC(=O)CNCCC(c1ccccc1)c1ccccc1 [N-(3,3-Diphenylpropyl)glycinamide]",scaled lipid accumulation score,[1],inactive: 0.155
NC(=O)CNCCC(c1ccccc1)c1ccccc1 [N20C hydrochloride],scaled lipid accumulation score,[1],inactive: 0.398
C=CC(=O)Nc1cc(Nc2nccc(-c3cn(C)c4ccccc34)n2)c(OC)cc1N(C)CCN(C)C,scaled lipid accumulation score,[1],inactive: ≤ 0
C#Cc1cccc(Nc2ncnc3cc4c(cc23)OCCOCCOCCO4)c1 [Icotinib],scaled lipid accumulation score,[2],inactive: ≤ 0
same,scaled lipid accumulation score,[1],inactive: ≤ 0
CC1=C(C(=O)O)N2C(=O)[C@@H](NC(=O)[C@H](N)C3=CCC=CC3)[C@H]2SC1 [Cephradine],scaled lipid accumulation score,library stock concentration: 5.7 mM,inactive: ≤ -0.001
same,scaled lipid accumulation score,[1],inactive: ≤ 0
N[C@@H](CCC(=O)N[C@@H](CS)C(=O)NCC(=O)O)C(=O)O [Glutathione],scaled lipid accumulation score,[1],inactive: ≤ 0
c1ccc(-c2[nH]ncc2-c2ccnc3ccccc23)nc1,scaled lipid accumulation score,[3],inactive: ≤ 0
same,scaled lipid accumulation score,[1],inactive: ≤ -0.001
CCC1(c2ccccc2)NC(=O)N(C)C1=O (centres undefined) [Mephenytoin],scaled lipid accumulation score,,inactive: 0.001
same,scaled lipid accumulation score,library stock concentration: 9.2 mM,inactive: ≤ -0.006
COc1cc2c3cc1Oc1cc(ccc1O)C[C@@H]1c4c(cc(OC)c(O)c4Oc4ccc(cc4)C[C@@H]3N(C)CC2)CC[N+]1(C)C [Tubocurarine chloride],scaled lipid accumulation score,library stock concentration: 3.1 mM,inactive: ≤ 0
CC1(C)[C@H](C(=O)O)N2C(=O)C[C@H]2S1(=O)=O [Sulbactam],scaled lipid accumulation score,[2],inactive: ≤ 0
same,scaled lipid accumulation score,library stock concentration: 8.6 mM,inactive: 0.002
same,scaled lipid accumulation score,[1],inactive: ≤ 0
CC1(C)[C@H](C(=O)O)N2C(=O)C[C@H]2S1(=O)=O [Sulbactam sodium],scaled lipid accumulation score,[2],inactive: ≤ 0
same,scaled lipid accumulation score,[1],inactive: ≤ 0
Cc1ncc(CO)c(CO)c1O [Pyridoxine hydrochloride],scaled lipid accumulation score,,inactive: ≤ 0
Cc1ncc(CO)c(CO)c1O [Pyridoxine HCl],scaled lipid accumulation score,[2],inactive: ≤ 0
same,scaled lipid accumulation score,[1],inactive: 0.02
Cc1ncc(CO)c(CO)c1O [Pyridoxine],scaled lipid accumulation score,library stock concentration: 11.8 mM,inactive: ≤ 0
O=C(O)c1ccc(-c2c[nH]c3ncc(-c4ccccc4)cc23)cc1C1CCCC1,scaled lipid accumulation score,[2],inactive: ≤ -0.009
same,scaled lipid accumulation score,[1],inactive: 0.079 and inactive: ≤ -0.001
C[C@H](O)[C@H](O)[C@@H](O)[C@@H](O)C=O [L-(+)-Rhamnose Monohydrate],scaled lipid accumulation score,[2],inactive: ≤ 0
same,scaled lipid accumulation score,[1],inactive: ≤ 0
CN1CCc2cc(Cl)c(O)cc2[C@@H](c2ccccc2)C1,scaled lipid accumulation score,library stock concentration: 9.9 mM,inactive: ≤ 0
same,scaled lipid accumulation score,[1],inactive: 0.251 and inactive: 0.216
Nc1ccc(N2C(=O)c3ccccc3C2=O)c(Cl)c1 [N-(4-Amino-2-chlorophenyl)phthalimide],scaled lipid accumulation score,[1],inactive: 0.089
CC(=O)Oc1ccccc1C(=O)O [Acetylsalicylic acid],scaled lipid accumulation score,[1],inactive: 0.006
CC(=O)Oc1ccccc1C(=O)O [Aspirin],scaled lipid accumulation score,[2],inactive: ≤ 0
same,scaled lipid accumulation score,[1],inactive: ≤ 0
O=C(O)[C@H]1NCCC[C@H]1C(=O)O,scaled lipid accumulation score,[1],inactive: ≤ 0
CCCCCCOC(=O)[C@]1(O)C[C@@H]2O[C@@]1(C)n1c3ccccc3c3c4c(c5c6ccccc6n2c5c31)C(=O)NC4,scaled lipid accumulation score,library stock concentration: 900 uM,inactive: 0.034
same,scaled lipid accumulation score,[2],inactive: ≤ 0
CNS(=O)(=O)CCc1ccc2[nH]cc(C3CCN(C)CC3)c2c1 [Naratriptan hydrochloride],scaled lipid accumulation score,[1],inactive: 0.019
CNS(=O)(=O)CCc1ccc2[nH]cc(C3CCN(C)CC3)c2c1 [Naratriptan],scaled lipid accumulation score,[2],inactive: ≤ 0
same,scaled lipid accumulation score,[1],inactive: ≤ 0
CCCCCCCC/C=C\CCCCCCCC(=O)NCC(=O)O [N-Oleoyl Glycine],scaled lipid accumulation score,[3],inactive: 0.029
COc1ccc2ccc(=O)oc2c1CC=C(C)C [Osthole],scaled lipid accumulation score,[2],inactive: ≤ 0
same,scaled lipid accumulation score,[1],inactive: ≤ 0
O=C(Nc1nc2cccc(-c3ccc(CN4CCS(=O)(=O)CC4)cc3)n2n1)C1CC1 [Filgotinib],scaled lipid accumulation score,[4],inactive: ≤ 0
same,scaled lipid accumulation score,[5],inactive: ≤ 0
same,scaled lipid accumulation score,[6],inactive: 0.007
same,scaled lipid accumulation score,[1],inactive: 0.289
O=C(Nc1nc2cccc(-c3ccc(CN4CCS(=O)(=O)CC4)cc3)n2n1)C1CC1 [Filgotinib (GLPG0634)],scaled lipid accumulation score,[2],inactive: ≤ -0.009
same,scaled lipid accumulation score,[1],inactive: 0.119
N=C(N)NS(=O)(=O)c1ccc(N)cc1 [Sulfaguanidine],scaled lipid accumulation score,,inactive: ≤ 0
same,scaled lipid accumulation score,[2],inactive: ≤ 0
same,scaled lipid accumulation score,library stock concentration: 9.3 mM,inactive: ≤ 0
same,scaled lipid accumulation score,[1],inactive: ≤ -0.001 and inactive: ≤ 0
C[C@]12CC[C@H](O)CC1=CC[C@@H]1[C@@H]2CC[C@]2(C)C(n3cnc4ccccc43)=CC[C@@H]12 [Galeterone],scaled lipid accumulation score,[2],inactive: 0.137
NC[C@@H]1CC[C@@H](N)[C@@H](O[C@H]2[C@H](O)[C@@H](O[C@H]3O[C@H](CO)[C@@H](O)[C@H](N)[C@H]3O)[C@H](N)C[C@@H]2N)O1 [Dibekacin],scaled lipid accumulation score,[1],inactive: 0.108
CC1=C(/C=C/C(C)=C/C=C/C(C)=C/C(=O)O)C(C)(C)CCC1 [Retinoic acid],scaled lipid accumulation score,,inactive: ≤ 0
same,scaled lipid accumulation score,[7],inactive: ≤ -0.003
same,scaled lipid accumulation score,[1],inactive: ≤ 0 and inactive: 0.016
CC1=C(/C=C/C(C)=C/C=C/C(C)=C/C(=O)O)C(C)(C)CCC1 [All trans retinoic acid],scaled lipid accumulation score,[3],inactive: 0.006
CC1=C(/C=C/C(C)=C/C=C/C(C)=C/C(=O)O)C(C)(C)CCC1 [Tretinoin],scaled lipid accumulation score,[2],inactive: ≤ 0
same,scaled lipid accumulation score,[1],inactive: ≤ 0
CC1=C(/C=C/C(C)=C/C=C/C(C)=C/C(=O)O)C(C)(C)CCC1 [trans-Retinoic acid],scaled lipid accumulation score,[1],inactive: ≤ 0
CC1=C(/C=C/C(C)=C/C=C/C(C)=C/C(=O)O)C(C)(C)CCC1 [Tretinon],scaled lipid accumulation score,[7],inactive: ≤ 0
same,scaled lipid accumulation score,[1],inactive: ≤ 0
"CC(O)C(O)[C@H]1CNc2nc(N)[nH]c(=O)c2N1 (stereo partly drawn) [(6R)-5,6,7,8-Tetrahydro-L-biopterin hydrochloride]",scaled lipid accumulation score,[1],inactive: ≤ 0
